The BET-seq Pho4 binding data (Le et al. 2018)
The list shows a part of the results. These are noisy estimates, calculated here from bound and input reads.

Molecular target: T1, Pho4 (S. cerevisiae) (UniProt P07270)
T1 sequence: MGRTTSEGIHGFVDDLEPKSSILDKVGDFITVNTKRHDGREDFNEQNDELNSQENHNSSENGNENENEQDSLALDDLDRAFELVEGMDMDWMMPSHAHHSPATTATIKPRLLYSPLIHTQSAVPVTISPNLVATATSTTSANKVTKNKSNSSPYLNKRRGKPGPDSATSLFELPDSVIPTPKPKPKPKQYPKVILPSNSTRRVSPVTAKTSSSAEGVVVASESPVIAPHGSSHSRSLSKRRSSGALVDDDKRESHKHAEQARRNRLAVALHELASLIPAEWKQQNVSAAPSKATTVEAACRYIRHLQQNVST
Experiment: relative binding free energy (BET-seq); higher = weaker binding
Conditions: reference: library average

Sequence	relative binding free energy [kcal/mol]
TAGGGCACGTGGCGGA	-0.28
TGTTACACGTGATACT	0.28
AGTCTCACGTGTATGT	0.19
TAGGACACGTGCTTTG	-0.08
AACGACACGTGTGGTG	-0.09
TTTAGCACGTGAAGAA	0.25
GAAGTCACGTGGGGAT	0.1
GGTGTCACGTGGGCAC	-0.01
ATGAGCACGTGTAATT	0.13
CGTTTCACGTGCAGAG	0.33
TATGTCACGTGGTGCG	-0.02
TCGTTCACGTGTTAGC	0.4
GTTCGCACGTGTTGCT	0.13
AATGTCACGTGAATAT	0.25
TTAACCACGTGATGGT	0.04
GGCAGCACGTGGTTGT	0.02
GTATGCACGTGCTTTT	0.03
ATGGGCACGTGTGGGA	-0.05
GGGACCACGTGGGTCG	-0.21
TGTGCCACGTGGGCTG	-0.18
TGTCGCACGTGATATT	0.05
GGGATCACGTGTAAGC	0.39
CTGTTCACGTGATATA	0.3
ATACGCACGTGGGGCG	-0.22
GTCTTCACGTGATGAT	0.52

Sequence	relative binding free energy [kcal/mol]
CGCGGCACGTGGGATG	-0.16
TGGGACACGTGCAAGT	-0.04
TTTGACACGTGTGCTT	0.02
TGGGCCACGTGATTTA	0.06
GTGTTCACGTGTTTGT	0.35
TAATACACGTGATTGT	0.2
ATTATCACGTGAGTCA	0.53
GGGGGCACGTGCGGTA	-0.26
TGATGCACGTGTTAAT	-0.06
AGGAGCACGTGGTTTT	-0.14
GATAGCACGTGGATGT	-0.18
TGGGTCACGTGTGTAC	0.12
GGGGTCACGTGTTAAT	0.19
ATGACCACGTGCGGGG	-0.14
TTTAGCACGTGTATAA	-0.14
GCGTGCACGTGAAATG	0.36
TGAGTCACGTGAATGA	0.23
GGTCACACGTGGTTGC	0.1
ATTCACACGTGTAGGT	-0.09
GATATCACGTGTTTTA	0.11
CGTTGCACGTGTTTTG	0.16
TGAAACACGTGTAATT	0.15
TGGTTCACGTGTGCTC	0.29
GGAAGCACGTGTGGGT	-0.14
TGGAACACGTGTATTT	-0.05

Sequence	relative binding free energy [kcal/mol]
ATAGTCACGTGTTTGA	0.11
AAGAACACGTGGTAGG	0.04
TTTTACACGTGGTTGA	0.1
CTATACACGTGGGTAT	-0.14
TTGAGCACGTGATAGG	-0.02
TCATTCACGTGTGTGG	0.25
ACTTTCACGTGTATGG	0.07
TTGTTCACGTGGCGCG	0.2
TCATGCACGTGTTTTA	-0.07
TTTAACACGTGTAGAA	0.1
GTCTTCACGTGGGATT	0.32
TGATGCACGTGGGCGC	-0.19
CTATTCACGTGTGGCG	0.27
TAGTTCACGTGCTGAA	0.33
CCTGTCACGTGTTTTT	0.18
AATGGCACGTGAAATT	0.18
TTTTCCACGTGTGAGA	0.16
TAGTGCACGTGCTGTT	-0.12
GTATGCACGTGTTGGT	0.06
GGGGGCACGTGAAGCG	0.16
GTGTTCACGTGATATT	0.42
ATTGGCACGTGTATAC	-0.22
TTAGGCACGTGGCGCA	-0.2
TTCCTCACGTGGCGGG	0.17
TGATTCACGTGTGCGG	0.13

Sequence	relative binding free energy [kcal/mol]
GCGGCCACGTGAGGTG	0.24
ATTATCACGTGTAAGT	0.08
GTTTCCACGTGTTGGC	0.26
AAGGGCACGTGGCGTT	-0.12
GTGGTCACGTGCCGTG	0.16
TTGAACACGTGAGGCT	0.26
TCGGGCACGTGGTAAT	-0.07
TTTGGCACGTGACGCG	0.03
AGTGTCACGTGGGCTG	-0.11
AGGATCACGTGGTTGG	0.15
GATGCCACGTGAGGGT	0.28
TTTATCACGTGGGAAG	0.12
GTTGGCACGTGGCGCA	-0.24
AGGTGCACGTGATGCT	0.09
GTTGCCACGTGGCGTG	-0.13
AGAGACACGTGTGTTT	0
CGGGTCACGTGAGGCA	0.22
CGTCACACGTGAAGGT	0.4
TGACGCACGTGTCTGT	-0.03
GGTTACACGTGAATGA	0.27
AGTAACACGTGTGGTC	-0.05
TTTGGCACGTGGAAAT	0.08
AGGTCCACGTGGTGGT	-0.09
AGCGTCACGTGAGGTG	0.24
TCGTGCACGTGTGGCT	-0.04

Sequence	relative binding free energy [kcal/mol]
CTTTGCACGTGTTTGA	-0.09
GGGTGCACGTGTTACG	0.02
TGCGTCACGTGGGTTA	0
AGTCTCACGTGCGGTG	0.06
TGATTCACGTGTTGTA	0.18
TGGATCACGTGCAGTG	0.13
TCATGCACGTGTGTGT	-0.04
TGTCGCACGTGGGTGT	-0.12
GGGAGCACGTGCGAGT	-0.17
TTTTGCACGTGGCCAT	-0.15
AAGGGCACGTGAATGA	0.3
GATGTCACGTGGTATT	0.2
GGCTGCACGTGAGGGT	0.28
TAATGCACGTGAAGTT	0.15
TTTACCACGTGGGAAT	0.01
ATCGACACGTGAGGGT	0.12
GTAGTCACGTGAGGTA	0.27
GTGTACACGTGTATTA	0.06
AGGGGCACGTGGCATT	-0.13
GTGGCCACGTGGTGAA	-0.04
TGTATCACGTGGGGCA	0.03
CTTTGCACGTGTTTTC	0
AATGGCACGTGACAGG	-0.03
ATGATCACGTGAGTTA	0.42
GGGTTCACGTGATATA	0.45

Sequence	relative binding free energy [kcal/mol]
CGGGGCACGTGTATCG	-0.13
TGAATCACGTGCTGTG	0.05
ATGATCACGTGGTATA	0.04
GGTTGCACGTGGGGGA	-0.02
TGGCGCACGTGGCGTT	-0.11
TGCGTCACGTGGTGCT	-0.12
GGCGTCACGTGTAGAG	0.22
TTAAGCACGTGTCTTT	0.04
GCCTGCACGTGGTGGT	-0.05
GGCGACACGTGTCGGG	0.25
TTTTACACGTGACAGG	0.24
GGGGCCACGTGGTTGC	-0.13
GGTGTCACGTGAAATG	0.32
TGTGCCACGTGTTTGG	-0.18
CGGTGCACGTGTATGG	-0.02
GTCGTCACGTGGTTTC	0.23
ATATGCACGTGAAATT	0.28
GGGAGCACGTGGAGCT	-0.08
ATGGCCACGTGCGGGT	-0.18
ATGTGCACGTGTCAGA	0.01
ATTTGCACGTGTCCGG	0.03
